Reference: PubChem BioAssay (NCI)
Values joined by “and” are separate entries in the source; they are usually repeats but may differ in a detail not shown here. Identical values can stand only once.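 All cell lines were grown in 96-well plates and treated with compound for 48 hours. The concentration for 50% growth inhibition is given as GI50. TGI is the concentration that stops growth completely.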

Test system: NCI-H322M lung
Assay: NCI-60 cell line screen, 48 h

Cn1c(-c2c(N)n(CCCN3CCOCC3)c3nc(C#N)c(C#N)nc23)nc2ccccc21
GI50: > 53.6 µM | TGI: > 100 µM

O=C1NC(=NCCCc2ccccc2)S/C1=C\c1ccc2ncccc2c1
GI50: 4.41 µM | TGI: > 18.6 µM

Fc1cccc(F)c1C1SCc2nc3ccc(Cl)cc3n21 (stereo not given)
TGI: > 100 µM

ClC(Cl)[Si]12OCCN(CCO1)CCO2
TGI: > 100 µM

CCCCCCC[CH2][Sn]1([CH2]CCCCCCC)[O]C(=O)c2cccnc2[O]1
GI50: > 100 µM | TGI: > 100 µM

Cc1ccc(S(=O)(=O)NC(CN)C(=O)O)cc1 (stereo not given)
TGI: > 100 µM

CCc1nc(N)nc(N)c1-c1ccc(N2CCNCC2)cc1
TGI: > 100 µM

CSc1c(C(=O)Nc2ccc(Cl)cc2)c(N)n(N)c(=O)c1C#N
TGI: > 100 µM

CN(CC(=O)N(Cc1ccc(C2CCCCC2)cc1)c1ccc(C(=O)O)cc1)S(=O)(=O)c1c(F)c(F)c(F)c(F)c1F
GI50: 1.89 µM | TGI: 4.27 µM

NNC(=O)c1cc(=O)[nH][nH]1
TGI: > 100 µM

CC(=O)NC(CC(C)C)C(=O)NC(Cc1ccccc1)C(=S)N1CCCC1 (stereo not given)
TGI: > 100 µM

C=C1C(=O)OC2/C=C(/C)C(OC(C)=O)C/C=C(\C)C(OC(=O)C3(C)OC3C)C(O)C12 (stereo not given)
TGI: > 100 µM

Clc1ccc(OCc2nn3c(CCc4nnc5sc(COc6ccc(Cl)cc6)nn45)nnc3s2)cc1
TGI: > 100 µM

CCN(CC)c1ccc(/C=C/C=C2C(=O)NC(=S)NC2=O)cc1
TGI: > 100 µM

CCc1ccccc1NNc1cc(=O)[nH]c(=O)[nH]1
TGI: 54 µM

CC(=O)N(O)c1ccc(-c2nc3ccccc3s2)cc1
TGI: > 100 µM

CCOC(=O)N(c1ccccc1)N(CC)C(=O)/C(C)=N/Nc1ccc([N+](=O)[O-])cc1
TGI: 49.7 µM

O=P(O)(O)C1(P(=O)(O)O)CC1
TGI: > 100 µM

COc1ccc(-n2sc3ncccc3c2=O)cc1
TGI: > 100 µM

CCCCCCCCCCCCCC[C@@H](O)[C@H]1CC[C@H]([C@H]2CC[C@H]([C@H](O)CCCCCC[C@@H](O)CC3=C[C@H](C)OC3=O)O2)O1
GI50: 3.45 µM | TGI: > 25 µM

C=CC(=O)N1CC2(CC(n3nc(-c4ccc5c(cnn5C)c4)c(-c4c(Cl)c(C)cc5[nH]ncc45)c3C)C2)C1
GI50: 5.21 µM | TGI: 16.8 µM

CCOC(=O)COc1ccc2c(C)cc(=O)oc2c1
TGI: > 100 µM

CN1CCN(CCCOc2cccc3nc(Nc4ccc(Cl)c(C(F)(F)F)c4)ccc23)CC1
GI50: 1.44 µM | TGI: 2.86 µM

CCN(CC)Cc1cc2[nH]c3c4ccc(Cl)cc4ncc3c2cc1OC
GI50: 14.2 µM and 3.14 µM | TGI: 27.5 µM and 11.7 µM

CCn1c(SCC(=O)NNC(=S)NC)nc2ccccc2c1=O
TGI: > 100 µM

O=C1/C=C/[C@@H](O)[C@@H]2C[C@@H](O)C[C@H]2/C=C/CCC[C@H](C(F)(F)F)O1
GI50: 18.9 µM | TGI: > 87.9 µM

Cn1ncc(Cl)c1-c1cc(C(=O)N[C@H](CN)Cc2ccc(F)c(F)c2)oc1Cl
GI50: 3.75 µM and 2.51 µM | TGI: 17.5 µM and > 10 µM

C[C@H]1S[C@H](c2c(Cl)cccc2Cl)N2Cc3ccccc3N=C12
TGI: 27.1 µM

CCn1c(-c2nonc2N)nc2cncc(C(=O)N3CC[C@H](N)C3)c21
GI50: > 25 µM | TGI: > 25 µM

Brc1ccc2ns[s+]c2c1
TGI: > 100 µM

CCSc1c2ccccc2c(-c2nc(F)nc(F)n2)n1CCc1ccccc1
TGI: > 100 µM

CC1(C)CC(=O)C2=C(C1)OC1=C(CC(C)(C)CC1=O)C2c1ccccc1[N+](=O)[O-] (stereo not given)
TGI: > 100 µM

CN1C(=O)C2(c3ccccc31)N(c1ccc(Cl)cc1)C(=O)C2(c1ccccc1)c1ccccc1 (stereo not given)
GI50: > 100 µM | TGI: > 100 µM

CN(CCCNC(=O)CCOCCOCCOCCNC(=O)Cc1ccc2ccc3cccc4ccc1c2c34)CCCNc1cc(-c2ccc3ccccc3c2)nc2ccccc12
GI50: 0.675 µM | TGI: 2.09 µM

CSC(=Nc1ccccc1)/N=C(\SCc1ccccc1)N(C)C
TGI: 3.9 µM

CC[n+]1c(/C=C/C=C2\N(C)c3ccccc3C2(C)C)sc2ccccc21
GI50: 6.47 µM | TGI: 20.6 µM

CC(=O)[O][Hg][c]1c(C)c(C)cc(C)c1C
GI50: 1.87 µM | TGI: 3.68 µM

CCOC(=O)C1(C)CCCCC(=O)N1 (stereo not given)
TGI: > 100 µM

COC(=O)[C@H]1CCCN1C(=O)[C@H]1CCCN1C(=O)[C@H](Cc1c[nH]c2ccccc12)NC(=S)Nc1cc(C(F)(F)F)cc(C(F)(F)F)c1
GI50: 34.7 µM | TGI: > 100 µM

C[N+]1(CCN[N+]2(C)CCCCC2)CCc2ccccc2C1 (stereo not given)
TGI: > 100 µM

CCN(CC)c1ccc2cc(C(=O)Nc3ccccn3)c(=N)oc2c1
TGI: > 100 µM

Cc1ccc(NC(=O)C(=O)CC(=O)c2sc(Nc3c(C)cccc3C)nc2C)cc1C
TGI: > 100 µM

C/C1=C\C=C(\C(C)C)CC/C(C(=O)O)=C\CC/C(C)=C/CC1
TGI: 39.4 µM

COc1cc(N(Cc2ccc3oc(=O)c(-c4ccccc4)nc3c2)Cc2ccc3oc(=O)c(-c4ccccc4)nc3c2)cc(OC)c1OC
TGI: > 10 µM

Nc1c(Cl)ncnc1NCCCNc1ncnc(Cl)c1N
TGI: > 100 µM

COc1cccc(/C=C2\COc3ccc(-c4ccccc4)cc3C2=O)c1
GI50: 1.98 µM | TGI: 6.29 µM

O=C(CN1C(=O)S/C(=C\C(Cl)=C\c2ccccc2)C1=O)NC1C=CS(=O)(=O)C1 (stereo not given)
GI50: 2.92 µM | TGI: 24 µM

CCOc1ccc(NC(=O)CC2C(=O)Nc3ccccc3S2(=O)=O)cc1 (stereo not given)
TGI: > 100 µM

O=C(COc1cccc(/C=C2\CSc3ccccc3C2=O)c1)Nc1nccs1
GI50: 12.5 µM | TGI: 25 µM

COc1ccc(C(C2=C(O)COC2=O)c2cc3c(cc2O)OCO3)cc1OC (stereo not given)
TGI: > 100 µM

NC(Cc1ccc(S(=O)(=O)O)cc1)C(=O)NC(Cc1ccc(S(=O)(=O)O)cc1)C(=O)O (stereo not given)
TGI: > 100 µM

CC1=C(C(=O)Nc2ccc(Cl)c(C(=O)OC(C)C)c2)SCCO1
TGI: > 77.4 µM

CCCCCCCCCCCC[n+]1ccc2ccccc2c1
GI50: 1.99 µM | TGI: 4.39 µM

C=CCOCn1cc(C)c(=O)[nH]c1=O
TGI: > 100 µM

COc1ccc(/C(C#N)=C2C=C/C(=N/O)c3ccccc3\2)cc1
GI50: 0.579 µM | TGI: 28.4 µM

CC(=O)[CH-]C(=O)c1ccccc1.CC(=O)[CH-]C(=O)c1ccccc1.C[C@]12CCC(=O)C=C1CC[C@@H]1C2CC[C@@]2(C)C1CC[C@]2(C)[O-].C[C@]12CCC(=O)C=C1CC[C@@H]1C2CC[C@@]2(C)C1CC[C@]2(C)[O-].Cl.[Ti+4] (stereo not given in full)
GI50: 30.2 µM | TGI: > 100 µM

COc1ccc(/C=N/n2cnc3[nH]c(C)c(Cc4ccccc4)c3c2=N)cc1
TGI: > 100 µM

O=C1Nc2ccccc2/C1=c1\[nH]c(=O)/c(=C\c2ccc(OCc3ccccc3)cn2)[nH]c1=O
TGI: > 100 µM

COC(=O)c1ccc(Nc2nc3nc[nH]c3c(=O)[nH]2)cc1
TGI: > 100 µM

CN1CSC(=S)N(Cc2ccccc2)C1
GI50: 19.8 µM | TGI: > 100 µM

CC(C)C1N(C)c2ccc(Cl)cc2[C@H]2c3ccccc3CCN12 (stereo not given in full)
TGI: > 100 µM

CC(=N\N)/C(C)=N/N=C(C)/C(C)=N/N=C(C)/C(C)=N/N
TGI: > 100 µM

O=C1Cc2cc(C(=O)NC3C[C@H]4CC[C@@H](C3)N4S(=O)(=O)CC3CCN(CCCC(F)(F)F)CC3)c(Cl)cc2N1 (stereo not given in full)
GI50: > 100 µM | TGI: > 100 µM

CCOC(=O)C1=C(C)N(c2ccc(OC)cc2)C2(O)C=CC(=O)C3=C(O)c4ccccc4C(=O)C312 (stereo not given)
TGI: 41.4 µM

COc1ccc(N(C)c2nc(N)nc3sc4c(c23)CCCC4)cc1
GI50: < 0.0132 µM | TGI: 20.2 µM

CC1(c2ccc(Cl)cc2)C2C(=O)NC(=O)C1C(=O)NC2=O (stereo not given)
TGI: > 100 µM

S=C(Nc1ccc2cn[nH]c2c1)Nc1ccc2cn[nH]c2c1
TGI: > 100 µM

CC(=O)Oc1ccc(/C=C/C(=O)O[C@@H](C(=O)O)[C@@H](OC(=O)/C=C/c2ccc(OC(C)=O)c(OC(C)=O)c2)C(=O)O)cc1OC(C)=O
TGI: > 100 µM

COc1cc(C2c3cc4c(cc3OC(N3CCNCC3)C2C)OCO4)cc(OC)c1OC (stereo not given)
TGI: > 100 µM

CC[C@H](C)[C@H](NC(=O)[C@H]1CCCCN1C)C(=O)N(C)[C@H](C[C@@H](OC(C)=O)c1nc(C(=O)N[C@@H](Cc2ccccc2)C[C@H](C)C(=O)O)cs1)C(C)C
GI50: 0.000854 µM and 0.00165 µM | TGI: > 16.5 µM

COc1cccc(/C=N/[N-]C(N)=O)c1[O-].[Cu+2].[OH3+].c1ccc(-c2ccccn2)nc1
TGI: > 88.1 µM

COC(=O)c1ccc(NC(=O)Oc2ccc(N(CCCl)CCCl)cc2)cc1
GI50: 55.6 µM | TGI: > 100 µM

O=c1[nH]cnc2c1nnn2CCCCCCCCCCCCn1nnc2c(=O)[nH]cnc21
TGI: > 100 µM

c1cnc(N2CCN(Cc3c[nH]c4ccccc34)CC2)nc1
TGI: > 100 µM

CSc1ccc2c(c1)C(N1CCN(C)CC1)Cc1ccccc1S2 (stereo not given)
GI50: 2.53 µM | TGI: 20.9 µM and 8.2 µM

O=C1c2cn[nH]c2C(c2ccccc2)N1c1ccccc1 (stereo not given)
TGI: > 10 µM

CCCC(CCN)(CCN)[N+](=O)[O-]
TGI: > 100 µM

COc1ccc2oc(=O)c(-c3csc(C)n3)cc2c1
TGI: > 100 µM

CC(=O)O[C@H]1CC[C@@]2(C)C(=CC[C@@H]3C2CC[C@]2(C)Nc4nc5ccccc5cc4CC32)C1 (stereo not given in full)
TGI: 21 µM

CCOc1cc(NC(C)=O)ccc1C(=O)NN1C(=O)CSC1c1ccccc1 (stereo not given)
TGI: > 100 µM

CN1c2ccccc2N(C(=O)c2ccccc2)C(CC(=O)O)c2cccn21 (stereo not given)
TGI: > 100 µM

O=C(Nc1ccccc1)c1cc(S(=O)(=O)N2CCNNC2=O)c(S)cc1Cl
TGI: > 100 µM

c1ccc2c3c([nH]c2c1)C(c1ccc(C2NCCc4c2[nH]c2ccccc42)cc1)NCC3 (stereo not given)
GI50: 1.25 µM | TGI: 2.66 µM

C[Si](C)(c1ccccc1)[C@H]1CCCC=C1CCNC1c2ccccc2CCc2ccccc21
TGI: > 100 µM

COc1ccc(/C=C/C(=O)c2sc(-n3nc(-c4ccccc4)cc3-c3ccccc3)nc2C)cc1
TGI: > 100 µM

CC(=O)NNc1nc(C)c(C(=O)NNC(=O)C(=O)Nc2ccc(Cl)cc2Cl)s1
TGI: > 100 µM

Nc1ncnc2c1ncn2C1CC(OCc2ccccc2[N+](=O)[O-])C(CO)O1 (stereo not given)
TGI: > 50 µM

CC1=NC(=Cc2ccc([N+](=O)[O-])cc2)C(=O)N1n1c(-c2ccccc2)nc2ccccc2c1=O
TGI: > 100 µM

CCN1CCN(C(=O)[C@]23CCC(C)(C)C[C@@H]2C2=CC[C@@H]4[C@@]5(C)C/C(=C/c6ccncc6)C(=O)C(C)(C)[C@@H]5CC[C@@]4(C)[C@]2(C)CC3)CC1
GI50: 1.62 µM | TGI: 3.02 µM

C[C@@H]1S[C@H](c2c(Cl)cccc2Cl)N2Cc3ccccc3N=C12
TGI: > 100 µM

N#CC1c2ccccc2C=CN1C(=O)N(c1ccccc1)c1ccccc1 (stereo not given)
GI50: 6.95 µM | TGI: 20.2 µM

C[Si](C)(C)C1=C([Si](C)(C)C)C(Cl)(Cl)C1=O
TGI: 29.1 µM

Cc1ccccc1NC(=O)Cc1csc2[n+]1C(=O)/C(=C/c1ccc([N+](=O)[O-])cc1)S2
TGI: > 100 µM

CC(=O)N1CCn2c1nc1cc(Cl)ccc12
TGI: 63 µM
